A collection of fitness landscapes (doi:10.1016/j.celrep.2020.107928)
Whole data set: some 81,000 sequences, median “one-hybrid fitness for binding parS DNA” near -0.17, cut for the highest 2% near 0.51. Some of the results follow.

B1: Caulobacter ParB omega fusion; a variant is named by its letters at X, in order, B8GW30 (parent)
chain: MESVVVGEPGMSEGRRGLGRGLSALLGEVDAAPAQAPGEQLGGSREAPIEILQRNPDQPRRTFREEDLEDLSNSIREKGVLQPILVRPSPDTAGEYQIVAGERAWRAAQRAGLKTVPIMVRELDDLAVLEIGIIENVQRADLNVLEEALSYKVLMEKFERTQENIAQTIGKSXSHVANXMRLLXLPDEVQSYLVSGELTAXHARAIAAAADPVALAKQIIEGGLSVRETEALARKAPNLSAGKSKGGRPPRVKDTDTQALESDLSSVLGLDVSIDHRGSTGTLTITYATLEQLDDLCNRLTRGI

Variants of: B1
Assay: one-hybrid fitness for binding parS DNA (scaled: cognate 1, non-cognate 0); higher = stronger binding
Conditions: with parS DNA site
Summary of the method: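 Pre- and post-selection plasmids were Illumina-sequenced, three replicate libraries were pooled, and any variant with under 10 reads was removed. The libraries were Caulobacter ParB with four specificity codons randomised, selected in E. coli USO through a HIS3 reporter whose site is 19 bp from the promoter. Cells grew 48 hours at 37°C on M9 without histidine, with 0.1 mM IPTG and 5 mM 3-AT. Fitness is the log change in variant-to-wild-type read ratio, rescaled against cognate and non-cognate.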

one-hybrid fitness for binding parS DNA, 0.31:
DYWS

one-hybrid fitness for binding parS DNA, 0.369:
REKT

one-hybrid fitness for binding parS DNA, 0.223:
RCCE

one-hybrid fitness for binding parS DNA, ≤ 0.2:
LKSC
TRFM
VAWR
LPIL
SWIV
TMAP
LDTA
NDRS
CEPM
VRNN
LYTR
PTNY
GEWK
QHVQ
PGAG
YAWS
GWGC
PGRY
TFHS
VLWR
AVDD
TWDT
SHTV
QHTY
KSSK
GARY
ICHR
YPKC
QDYR
MGHA
TNMT
RQVW
TQTI
NSWL
SQHR
NQGT
QILN
ETNS
WQSF
IRTV
GTYV
GNGR
VKPH
EDPN
MHTW
SSHW
LHTW
EKRT
QYHR
LMPR
MRCI
KFSG
WPEH
SNSA
RGMY
AFLT
KNES
EVHV
GYWM
HKYS
EPSP
NRKK
PIGL
ECLT
HFLS
LTIY
SCTG
VCEG
RSRQ
KMRT
NQLC
PYVA
LETS
GANG
LGAV
IDAS
WHRH
YGPC
TSLH
PQFA
PQDL
NIFG
FTSL
TYVN
NILS
TGYI
PRYF
CILG
RNRR
RGMD
MRQT
NYDR
PKSG
VQMM
VCLI
TMAG
PKRN
GCDC
IQSR
GGTA
LWKN
IRMS
ILIH
EWDA
HQRC
KEND
TFHG
FPHS
DLSL
WEYM
VATY
NVTP
TACL
YDCT
QKCC
YWLT
RRLD
FGPF
TVGW
GLWR
QFTR
KPPA
LRMG
YGSP
TPVQ
SYSK
ASPA
GFST
QQSY
TSAP
DIPS
NVLP
WVPI
WPAR
AFTY
LYNE
RLYV
TGRL
NSSL
GRQF
YHSR
QADH
FKKC
DTTS
DNDR
FVHG
MYKA
QLCR
AWWV
TELA
TPIE
GTGG
NSPS
NAMD
QIHD
WDSG
EMIS
DWKF
HDYC
MFGS
AATH
QFTA
TADS
ECLG
GRMF
HLPI
NMPA
KTIC
VRKT
GWPW
SYVG
SAYV
SVEV
GPHS
NLPM
ALPI
GPWM
ILGV
PIGA
YHWR
CHQA
AKIM
KQQC
KWRC
STRN
QTSF
IHDA
LWER
LQFT
FCTC
TPPA
TLAL
PSWM
NILG
PAVL
PCET
CKSF
PTQA
DGDP
YSAW
VAKL
IVKS
FVSR
QVKK
QCGQ
CGAF
KHKA
HRRQ
SNIK
FWPY
KVPW
SYRL
PMEF
KTNT
VGAS
GAAT
NYLL
VWER
KIAI
WLRT
LTDT
NSVR
IVRW
SPYS
IYTC
GLRF
WTDD
YFMT
DFSG
SFFR
KRHD
MREN
REAN
HDAG
ARIN
THPT
PWRI
INAG
EGHK
YCAA
WQLG
HMKG
IWAS
TPMV
VKHD
QTEW
NGVL
WQDG
SPRW
TREP
APLV
CQTP
QPFT
GGHV
ADNQ
TGHT
CIEL
KSHI
PACS
CMNP
QKGI
DYGT
DKQI
GIEL
SAVY
TLIG
WQQR
QTKD
TCHV
LMTQ
FDKR
RFGW
MQVH
SRTG
HSCW
DVDT
APYH
DHTG
TSSD
GPTR
SGQG
HDLD
VKRT
DIGG
QCGN
FICS
ADPR
RERK
IKTF

one-hybrid fitness for binding parS DNA, 0.318:
RWSN

one-hybrid fitness for binding parS DNA, 0.959:
RSNS

one-hybrid fitness for binding parS DNA, 0.981:
RVIS

one-hybrid fitness for binding parS DNA, 0.766:
RHCT

one-hybrid fitness for binding parS DNA, 0.945:
RLKG

one-hybrid fitness for binding parS DNA, 0.743:
RRFS

one-hybrid fitness for binding parS DNA, 0.448:
RCMN

one-hybrid fitness for binding parS DNA, 0.514:
RQPG

one-hybrid fitness for binding parS DNA, 0.39:
RLKW

one-hybrid fitness for binding parS DNA, 0.87:
RQIS

one-hybrid fitness for binding parS DNA, 0.966:
RMFC

one-hybrid fitness for binding parS DNA, 0.358:
RHKM

one-hybrid fitness for binding parS DNA, 0.992:
RVTG

one-hybrid fitness for binding parS DNA, 0.836:
RRVG
